# According to the supplement of paper PMC11417369:
# ± gives the standard deviation of the averaged measurements. The list shows a part of the results.
# Test system: PfAP2-I AP2 domain 3 (GST-tagged)
# Assay: gcPBM binding intensity (ln(normalized median fluorescence intensity)); higher = stronger DNA binding
# Summary of the method: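 Binding intensity is the highest Masliner-normalised natural-log median intensity over replicate spots in either probe orientation. To obtain it, GST-tagged P. falciparum DNA-binding domains made in E. coli were incubated for 1 h on an Agilent 4 × 180k array of primer-extended double-stranded 36-bp intergenic genomic probes plus negative controls. Detection used Alexa488 anti-GST antibody with scanning at 488 nm.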
row,Sequence,gcPBM binding intensity (ln)
1,CTATATATATATTTCAGTACATATTAAGAATATATA [XGTACX_site4860],7.69 ± 0.4
2,AGGAAAAAAGAAAAAACACACATAAATATTTATATA [CACACA_site7446],7.44 ± 0.52
3,TATATATATTTATGCACACAAAATATATTATATAAT [CACACA_site5955],9.86 ± 0.38
4,TATACATCATTTTTCAACAACAAAAAAAAAAAAAAT [CACACA_negctrl_site1185],7.59 ± 0.47
5,ATATATATAAATACAACACACATGTAATATATAAAT [CACACA_site5766],8.03 ± 0.48
6,ACGTAAAATAGGGACGCATGCACAAATATTTTTAAA [TGCATGCA_site336],7.97 ± 0.7
7,TGAACAATATATAATAGTACATATTTATTTTTTTCT [XGTACX_site4256],7.38 ± 0.55
8,ATATGTTTTTTTTTTTTTTTTTAATTTGTCATAAAT [CACACA_negctrl_site1208],7.55 ± 0.5
9,TCTTTCAATATTAATGCATGTTAATAATAAATTTTA [TGCATGCA_site448],7.96 ± 0.57
10,TAAAGATGAAATATCACACATATATAAATATATAAA [CACACA_site4580],7.32 ± 0.35
11,TCTTTCTTATTTTAATGATATTTATTCATTCCAGTT [CACACA_negctrl_site1679],7.65 ± 0.76
12,ATATAAATAAATATATGTACACACACAAATATATAC [XGTACX_site3950],7.89 ± 0.49
13,AAAAAACACGCGCACACACACACACGCGCCCACATA [CACACA_site7106],8.26 ± 0.65
14,ATAAAAAAAAATATTTGTACACATATTTATATATTA [XGTACX_site8147],7.63 ± 0.36
15,AATACTAAAACCCATACACACACATATATATAGTAC [CACACA_site9041],8.04 ± 0.61
16,ACTTTTACACTTTGATTGCACTACTAAACCAGTTCA,10.4 ± 0.16
17,AGAATTATTCTAAAAACACACAATACAAAAGTGCAT [CACACA_site3004],7.83 ± 0.61
18,ATAACTTTCTATACATGTACACATATATGGTATTTT [XGTACX_site7535],8.01 ± 0.7
19,ATAAATTTTTTATGAACACACAAATACACCCACTCA [CACACA_site5465],8.8 ± 0.35
20,TGTATATATTTTAATAGTACTCATATATATATATAT [XGTACX_site7216],9.23 ± 0.085
21,CTTATAAAAAAAATTGCACACATATTATACAGGACG [CACACA_site8133],8.48 ± 0.57
22,TTTACATTTATGTGCACACATTCCATTTGAAAGTAA [CACACA_site1953],10.3 ± 0.23

row,Sequence,gcPBM binding intensity (ln)
1,AATATTTTTTTTTAAACATGCATATTTGCATTACCC [TGCATGCA_site437],8.15 ± 0.82
2,TTTTTTTTAATGAGAAGTACGGTCTTTCAATGTCTT [XGTACX_site6773],7.71 ± 0.34
3,ATTGTGTTGACGGGTGACCCTTCCAGAGAAATAGAA [CACACA_negctrl_site1362],7.66 ± 0.7
4,TAAAAATTAAAACTGGGTACAAATTTATAGATAGCC [XGTACX_site8075],7.86 ± 0.52
5,CATTAACAAATAAATGCACACATATATATAAATAAT [CACACA_site7892],9.51 ± 0.35
6,AATTTATTAGATAGATGTACATTTTAATAAAAGTAG [XGTACX_site6819],7.83 ± 0.43
7,TCCCCTTAATTTAAAACACACAAACAAATAAGTTAG [CACACA_site5973],7.71 ± 0.44
8,ATATATACAAAGGATTAACACACATATTATTATATA [CACACA_site8563],7.64 ± 0.56
9,TTCGTTATAATTGAATTTACAATATGCTTTATAATG [XGTACX_negctrl_site238],7.58 ± 0.45
10,TAAATTACATGAAATTGTACATGAATATTAAATATA [XGTACX_site3909],7.42 ± 0.4
11,GTGTACAGTTTTTGCACACATATAAATAAAAAAAAG [CACACA_site3599],9.365 ± 0.078
12,AAAATATTTATATTTACACACACATAATACATATAT [CACACA_site32],7.71 ± 0.57
13,ATATATATGAATACATGTACGTATTTGTCTATGTAT [XGTACX_site8306],7.87 ± 0.47
14,AATAAAGGAAATAAATAATTTATTTTGTAAAATATG [CACACA_negctrl_site97],7.6 ± 0.58
15,CAATGTTAACATATTACACACATATGTATTTATAAT [CACACA_site5512],7.95 ± 0.37
16,TAATATCATTTATGGGGTACCTCCTATTCTTATTTA [XGTACX_site1839],7.71 ± 0.59
17,CGAACTGCACTTTTTAGTACTTAATAATTATTTTTT [XGTACX_site2446],10 ± 0.59
18,TCATATGTTAAATGATGTACATTTAATATAAATAAA [XGTACX_site900],7.5 ± 0.23
19,AAAAAAAACATCCTCACACATATATATATATATATA [CACACA_site5166],9.37 ± 0.3
20,AAATAAAATTATAATACATGCATACATACATATATA [TGCATGCA_site69],7.9 ± 0.54
21,TATAAATACATACGTACACACAAATATTAAAATATA [CACACA_site5129],7.905 ± 0.007
22,ATGTTACTCAGACACACACACATAAAAAAACAAAAA [CACACA_site3249],8.05 ± 0.49

row,Sequence,gcPBM binding intensity (ln)
1,TGTGTTAATATATGAAGTACACAATACACACTAATT [XGTACX_site5469],8.12 ± 0.56
2,AAAAAGGAGAAACACACACACACACCCATATATATA [CACACA_site905],8.31 ± 0.86
3,CATGCTACATCTTATTGTACTTATCTAATGTTAGTA [XGTACX_site1863],7.76 ± 0.66
4,AGGCAATATTATATATATATATATATATATATATAT [CACACA_negctrl_site826],9.37 ± 0.39
5,TCTTTTTACACCTCTTACATAAAACAAAATAAGGGG [XGTACX_negctrl_site12],9.12 ± 0.2
6,TATACATGTTATGTACATCTAATCACACGTGCAATA [CACACA_negctrl_site1267],8.63 ± 0.59
7,TGTATGTTTGGGTGCACACATAAATATTATATATAG [CACACA_site3397],10.5 ± 0.57
8,ATATATATAAAACACACACACACATGGTTTAAAACT [CACACA_site4219],8.12 ± 0.7
9,TTGTAAATTTACATTTGTACATAAATATATTAATAT [XGTACX_site3969],7.75 ± 0.42
10,TATATATTCATATGTTGTACATAAATACAAATAAGA [XGTACX_site5602],7.68 ± 0.44
11,TGCAGTCTGGAGAAGAGTACACAGTATCTGGTAACA [XGTACX_site2037],7.83 ± 0.56
12,AAAGGTAAATGTAAATAAATAAATAATAAATATATA [GTGCAC_negctrl_site681],7.42 ± 0.4
13,AACAGAATAATACTAAATGAACGATTTCTCTTTATG [GTGCAC_negctrl_site376],7.34 ± 0.59
14,ATTTTTTTTTTTTTTTTTTATATGCTCTCCATGAGA [CACACA_negctrl_site1225],7.59 ± 0.48
15,ATTAATATGAATAAAACACACATATATAATTTGTAA [CACACA_site1929],7.42 ± 0.6
16,TAACTTTTATCCTTAATTCATATATAAGATTAAATC [CACACA_negctrl_site669],7.44 ± 0.35
17,AAAAAAAAAAAGAAATGTACATGAATATTTTAAATG [XGTACX_site4069],7.74 ± 0.57
18,TGTGTATATTATATGTGTACATATCAATGTTTATAT [XGTACX_site1885],8.01 ± 0.32
19,TAATATATAACGTGCACACACACATCTACGTATGAA [CACACA_site5080],10.82 ± 0.099
20,TAATATTAAATAAATAAAATATATAATATATATATA [XGTACX_negctrl_site49],8.41 ± 0.4
21,TGGCATTAAAATTTAGTGCATATATCTTAGCATGGG,10.2 ± 0.33
22,TATTGTTATTAAAAATGTACATATAAATTTCTTATT [XGTACX_site1409],7.73 ± 0.23

row,Sequence,gcPBM binding intensity (ln)
1,AAAAATAAAAGGTGTGCACACAAAAATATATATATA [CACACA_site8507],9.74 ± 0.26
2,GTATGATGCATAAGAGTGCATAAGGATATTTCTTCA,10.8 ± 0.3
3,AATTTAAAAAATAACAGTACATAAAATATATACATA [XGTACX_site7917],7.36 ± 0.38
4,TTTATATAATATGAATGTACTTATATATTTATAGAC [XGTACX_site3261],8.12 ± 0.16
5,AAGACTCTTTGTCCTTGTACATATATTTTTATGTTT [XGTACX_site3711],7.76 ± 0.59
6,TATTTATTCTCCAACACACACACATATATATATATA [CACACA_site2894],9.52 ± 0.3
7,AAAATGAATTTAAAATGTACTTTTTCTAAAGAGTAA [XGTACX_site2337],7.52 ± 0.42
8,TTATAGGTGCTTCGTAGTACATAAAAATAATATATA [XGTACX_site6979],8.05 ± 0.22
9,AGTTTTATATTTCTGAGTACTTATGAATCTAGCTCG [XGTACX_site4330],7.73 ± 0.69
10,TTGTAAAAAATTCATACACACGTCTTATTTTTAAGA [CACACA_site8390],7.36 ± 0.49
11,ATTTTTTCTAAAAGTTGTACATTAAAACGTGTTCAC [XGTACX_site4803],7.83 ± 0.36
12,TTTTTTTTTTTTTTTACACACATTTTAATAATTTTA [CACACA_site1492],8.11 ± 0.77
13,TTATTTCTAATTCGTTGTACAATATATAATATATAT [XGTACX_site5861],8.21 ± 0.36
14,TATCCATATTTGTTCACACACACACGGATTTATATA [CACACA_site7649],7.91 ± 0.47
15,GGAATATTATTTCAATGTACATTTTGAGATTAGAAT [XGTACX_site8187],7.8 ± 0.39
16,ATTATTATTTTACGTAGTACATATAATAAATATTTA [XGTACX_site8934],7.5 ± 0.11
17,TTGATAGACACATGCACACATGCAATACTTTATTCA [CACACA_site3000],8.72 ± 0.66
18,TAGGTGTTAAAAAATACACACACAAAAAAAAAAAAA [CACACA_site7927],8.03 ± 0.7
19,CCTTTAAGCAAAAACACACACACATATATATATATA [CACACA_site348],9.39 ± 0.27
20,TCTTCCATTTTTATTACACACATAAATATGAAATCG [CACACA_site3471],8.07 ± 0.5
21,TATAAAATAAAAAATATATATATGTATATATATATA [TGCATGCA_negctrl_site163],9.32 ± 0.45
22,ATTATTTTATATACATGTACATATTATATATAAAAG [XGTACX_site2735],7.85 ± 0.47
